From the supplement of paper PMC12217912
This is one part of the list. Sequences were assembled here from the parent chain. Values near 0.05 are background.

B1: TEV protease; numbered along this chain (parent)
chain: MGESLFKGPRDYNPISSSICHLTNESDGHTTSLYGIGFGPFIITNKHLFRRNNGTLVVQSLHGVFKVKDTTTLQQHLVDGRDMIIIRMPKDFPPFPQKLKFREPQREERICLVTTNFQTKSMSSMVSDTSCTFPSGDGIFWKHWIQTKDGQCGSPLVSTRDGFIVGIHSASNFTNTNNYFTSVPKNFMELLTNQEAQQWVSGWRLNADSVLWGGHKVFMVKPEEPFQPVKEATQL

Variants of: B1
Assay: raw area under fraction-flipped curve 0-4 h after induction (AUC4h, not background-subtracted), DNA-recorder readout of cleavage of the substrate (dimensionless); higher = more cleavage of the substrate by the protease variant
Conditions: temperature: 34 °C; time window: 0-4 h after rhamnose induction
Procedure: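 In vivo DNA recorder in E. coli TOP10(DE3) ΔrhaA at 34 °C. Each TEVp single-site mutant (parent TEVp 0) is paired with a single-site variant of the 7-mer TEVs (canonical ENLYFQ|S). The substrate sits between flexible linkers in a Bxb1-sfGFP-TEVs-SsrA fusion, so cleavage stabilises Bxb1 and speeds flipping of a recombination array, read by NGS. The value is the raw area under the fraction-flipped curve over 0-4 h after rhamnose induction (AUC4h), with ≥20 reads per time point. It is not background-subtracted; inactive controls average about 0.047.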
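Further: Bxb1 expression induced with 0.2% (w/v) L-rhamnose at OD600 near 0.5, cultures sampled hourly, flipped fraction per protease–substrate barcode pair counted by paired-end Illumina sequencing.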

| Variant | area with substrate ENLAFQS | area with substrate ENLDFQS | area with substrate ENLEFQS | area with substrate ENLFFQS | area with substrate ENLHFQS | area with substrate ENLIFQS | area with substrate ENLKFQS | area with substrate ENLLFQS | area with substrate ENLNFQS | area with substrate ENLQFQS | area with substrate ENLRFQS | area with substrate ENLSFQS | area with substrate ENLTFQS | area with substrate ENLWFQS | area with substrate ENLCFQS | area with substrate ENLMFQS | area with substrate ENLPFQS | area with substrate ENLVFQS | area with substrate ENLGFQS |
| --- | --- | --- | --- | --- | --- | --- | --- | --- | --- | --- | --- | --- | --- | --- | --- | --- | --- | --- | --- |
| MGESLFKGPRDYNPISSSICHLTNESDGHTTSLYGIGFGPFIITNKHLFRRNNGTLVVQSLHGVFKVKDTTTLQQHLVDGRDMIIIRMPKGFPPFPQKLKFREPQREERICLVTTNFQTKSMSSMVSDTSCTFPSGDGIFWKHWIQTKDGQCGSPLVSTRDGFIVGIHSASNFTNTNNYFTSVPKNFMELLTNQEAQQWVSGWRLNADSVLWGGHKVFMVKPEEPFQPVKEATQL [D91G] | 0.0639 | 0.0534 | 0.0658 | 0.0845 | 0.0776 | 0.0867 | 0.069 | 0.0785 | 0.0672 | 0.0843 | 0.0626 | 0.0607 | 0.0696 | 0.0658 |  |  |  |  |  |
| MGESLFKGPRDYNPISSSICHLTNESDGHTTSLYGIGFGPFIITNKHLFRRNNGTLVVQSLHGVFKVKDTTTLQQHLVDGRDMIIIRMPKDMPPFPQKLKFREPQREERICLVTTNFQTKSMSSMVSDTSCTFPSGDGIFWKHWIQTKDGQCGSPLVSTRDGFIVGIHSASNFTNTNNYFTSVPKNFMELLTNQEAQQWVSGWRLNADSVLWGGHKVFMVKPEEPFQPVKEATQL [F92M] | 0.0572 | 0.0545 | 0.0669 |  |  | 0.103 |  |  | 0.0749 | 0.073 |  |  | 0.105 |  | 0.07 | 0.0557 | 0.0666 | 0.106 |  |
| MGESLFKGPRDYNPISSSICHLTNESDGHTTSLYGIGFGPFIITNKHLFRRNNGTLVVQSLHGVFKVKDTTTLQQHLVDGRDMIIIRMPKDSPPFPQKLKFREPQREERICLVTTNFQTKSMSSMVSDTSCTFPSGDGIFWKHWIQTKDGQCGSPLVSTRDGFIVGIHSASNFTNTNNYFTSVPKNFMELLTNQEAQQWVSGWRLNADSVLWGGHKVFMVKPEEPFQPVKEATQL [F92S] | 0.0799 |  | 0.0626 | 0.0478 |  | 0.054 | 0.0629 |  | 0.067 | 0.0828 | 0.0832 |  |  | 0.0494 | 0.0526 |  | 0.0628 |  | 0.046 |
| MGESLFKGPRDYNPISSSICHLTNESDGHTTSLYGIGFGPFIITNKHLFRRNNGTLVVQSLHGVFKVKDTTTLQQHLVDGRDMIIIRMPKDWPPFPQKLKFREPQREERICLVTTNFQTKSMSSMVSDTSCTFPSGDGIFWKHWIQTKDGQCGSPLVSTRDGFIVGIHSASNFTNTNNYFTSVPKNFMELLTNQEAQQWVSGWRLNADSVLWGGHKVFMVKPEEPFQPVKEATQL [F92W] | 0.061 |  | 0.0748 | 0.0737 |  |  | 0.0872 | 0.0804 | 0.0669 |  |  | 0.0823 |  | 0.0733 | 0.0833 | 0.0927 |  |  |  |
| MGESLFKGPRDYNPISSSICHLTNESDGHTTSLYGIGFGPFIITNKHLFRRNNGTLVVQSLHGVFKVKDTTTLQQHLVDGRDMIIIRMPKDFPPEPQKLKFREPQREERICLVTTNFQTKSMSSMVSDTSCTFPSGDGIFWKHWIQTKDGQCGSPLVSTRDGFIVGIHSASNFTNTNNYFTSVPKNFMELLTNQEAQQWVSGWRLNADSVLWGGHKVFMVKPEEPFQPVKEATQL [F95E] | 0.0444 | 0.0449 | 0.0525 | 0.0913 | 0.0464 | 0.0554 | 0.0461 | 0.0462 | 0.0436 | 0.0486 |  | 0.0465 | 0.0636 | 0.0474 |  |  | 0.0653 |  |  |
| MGESLFKGPRDYNPISSSICHLTNESDGHTTSLYGIGFGPFIITNKHLFRRNNGTLVVQSLHGVFKVKDTTTLQQHLVDGRDMIIIRMPKDFPPPPQKLKFREPQREERICLVTTNFQTKSMSSMVSDTSCTFPSGDGIFWKHWIQTKDGQCGSPLVSTRDGFIVGIHSASNFTNTNNYFTSVPKNFMELLTNQEAQQWVSGWRLNADSVLWGGHKVFMVKPEEPFQPVKEATQL [F95P] | 0.0583 | 0.0596 | 0.052 | 0.0536 | 0.0367 |  | 0.0547 | 0.0488 | 0.0614 |  | 0.0559 | 0.0349 |  | 0.0547 |  |  |  |  |  |
| MGESLFKGPRDYNPISSSICHLTNESDGHTTSLYGIGFGPFIITNKHLFRRNNGTLVVQSLHGVFKVKDTTTLQQHLVDGRDMIIIRMPKDFPPFDQKLKFREPQREERICLVTTNFQTKSMSSMVSDTSCTFPSGDGIFWKHWIQTKDGQCGSPLVSTRDGFIVGIHSASNFTNTNNYFTSVPKNFMELLTNQEAQQWVSGWRLNADSVLWGGHKVFMVKPEEPFQPVKEATQL [P96D] | 0.0799 |  | 0.0581 | 0.0758 | 0.0777 | 0.111 | 0.0652 | 0.0773 | 0.0618 |  |  | 0.0411 |  | 0.0763 | 0.0537 | 0.0754 |  |  |  |
| MGESLFKGPRDYNPISSSICHLTNESDGHTTSLYGIGFGPFIITNKHLFRRNNGTLVVQSLHGVFKVKDTTTLQQHLVDGRDMIIIRMPKDFPPFPMKLKFREPQREERICLVTTNFQTKSMSSMVSDTSCTFPSGDGIFWKHWIQTKDGQCGSPLVSTRDGFIVGIHSASNFTNTNNYFTSVPKNFMELLTNQEAQQWVSGWRLNADSVLWGGHKVFMVKPEEPFQPVKEATQL [Q97M] | 0.0663 | 0.0599 | 0.0605 | 0.083 | 0.063 | 0.101 | 0.0752 | 0.0661 | 0.0593 | 0.0535 |  | 0.0674 |  | 0.0739 | 0.0852 | 0.0738 | 0.0654 |  | 0.0457 |
